Article PMC7718926
Substitutions are numbered along the chain they refer to. Numbers in names are those of the source. Results are given in words; binding and its absence hold for the method and conditions named. Binding seen in cells or lysates may run through a third protein. Some entries that bind do so weakly or less than the wild type.

B1: actin-depolymerization factor 4 (ADF4), wild type (protein, UniProt Q9ZSK3 1-139)
chain: MANAASGMAVHDDCKLRFLELKAKRTHRFIVYKIEEKQKQVIVEKVGEPILTYEDFAASLPADECRYAIYDFDFVTAENCQKSKIFFIAWCPDVAKVRSKMIYASSKDRFKRELDGIQVELQATDPTEMDLDVLKSRVN
B2: ADF4 S105A (phospho-null derivative) (protein, UniProt Q9ZSK3 1-139)
chain: B1 chain with S105A
B3: ADF4 S106A (phospho-null derivative) (protein, UniProt Q9ZSK3 1-139)
chain: B1 chain with S106A
B4: ADF4 S105D (phosphomimic variant) (protein, UniProt Q9ZSK3 1-139)
chain: B1 chain with S105D
B5: ADF4 S106D (phosphomimic variant) (protein, UniProt Q9ZSK3 1-139)
chain: B1 chain with S106D

target: Arabidopsis actin-7 (ACT7) (Arabidopsis) (UniProt P53492); assay: co-IP; transient co-expression in N. benthamiana; extract in 50 mM HEPES pH 7.5, 50 mM NaCl, 10 mM EDTA, 0.2% triton X-100; anti-Flag M2 or anti-actin monoclonal antibody with protein-G sepharose, 4 °C; blot with anti-Flag M2-peroxidase

Binder | binding
B1 | binds
B2 | binds
B3 | binds
B4 | no binding
B5 | no binding
